According to PubChem BioAssay AID686970 (National Center for Advancing Translational Sciences (NCATS), 2013):
About 6,000 (1.7%) of roughly 360,000 compounds were called active. This list was built around the results that the source calls inconclusive (neither active nor inactive); the mix of calls is not that of the screen. The call rests on the fitted dose curve; in most records, active means well fitted cell-killing curve with a large enough effect; inconclusive means small, poorly fitted or top-dose-only effect, or effect the other way; inactive means flat fitted curve, though single readings scatter. No potency is given beside an inconclusive call; the fits are too rough.

Test: qHTS for induction of synthetic lethality in tumor cells producing 2HG: qHTS for the HT-1080-NT fibrosarcoma cell line;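 further: NT is the 2HG producing partner of a matched IDH1 knockdown line; nearly all actives have a fitted effect of over 55% in size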
Details: HT-1080-NT fibrosarcoma viability, CellTiter-Glo ATP luminescence, 48 h; series mostly up to 46.1 µM
From the text: Unbiased genomic sequencing for 22 glioma genomes found recurrent mutation of IDH1 on chromosome 2q33, a gene encoding the cytosolic isoform of IDH1 associated with the tricarboxylic acid cycle (TCA) that catalyzes the oxidative decarboxylation of isocitrate, yielding alpha-ketoglutarate and CO2 via NADP+ to NADPH conversion. Subsequent studies confirmed the recurrent IDH mutations in up to 70% of secondary gliomas and in 10% of AML cases. […]
Suspensions of trypsinized HT-1080-NT cells were dispensed into white, tissue culture-treated, solid 1536-well plates at 5uL/well (750 cells/well final concentration) in RPMI medium supplemented with 5% FBS. […] The plates were measured on a PerkinElmer ViewLux plate reader for luminescent signal (clear filter, 1 sec exp). […]
Concentration-response curves were fitted to the signals arising from the resulting luminescence. The concentration-effect curves were then classified based on curve quality (r2), response magnitude and degree of measured activity, and compounds were subsequently categorized based on their curve class.
Potency means the concentration at half of the fitted maximal effect; tags describe the fitted curve by direction and shape.

Structure (SMILES)	Potency
O=C(Nc1ccc(C(=O)O)cc1)/C(=C\C=C\c1ccccc1)NC(=O)c1cccc(Br)c1	inconclusive [cytotoxic, partial curve]
